Assay [1] concerns the target Flap endonuclease 1 (FEN1), endogenous (human (endogenous in HEK293T)) (UniProt P39748). Put plainly: co-IP; HEK293T cells overexpressing one CST subunit (Flag-CTC1, Myc-STN1 or Flag-TEN1) for 24 h, untreated or 200 μM H2O2 for 2 h; RIPA lysates treated with benzonase; endogenous BER protein immunoprecipitated (Dynabeads protein G), blot with anti-FLAG or anti-Myc.
Assay [2] has as its target 8-oxo-guanine glycosylase (OGG1), endogenous (human (endogenous in HeLa and HEK293T)) (UniProt O15527). Described as above.
In assay [3] the target is AP endonuclease 1 (APE1), endogenous (human (endogenous in HEK293T)) (UniProt P27695). The description is as above.
The target in assay [4] is DNA ligase I (LigI), endogenous (human (endogenous in HEK293T)) (UniProt P18858). The description is as above.
The target in assay [5] is Human CST complex (CTC1-STN1-TEN1) (human) (UniProt Q2NKJ3+Q9H668+Q86WV5). Put plainly: pull-down; CST complex incubated with one His-tagged BER protein in a 1:1 ratio for 2 h, then on Flag beads for 4 h to pull down Flag-CTC1; input, flowthrough and eluate probed with anti-His; both purified.

Amino acid sequences for entries named in this document (tags omitted).
UniProt P39748: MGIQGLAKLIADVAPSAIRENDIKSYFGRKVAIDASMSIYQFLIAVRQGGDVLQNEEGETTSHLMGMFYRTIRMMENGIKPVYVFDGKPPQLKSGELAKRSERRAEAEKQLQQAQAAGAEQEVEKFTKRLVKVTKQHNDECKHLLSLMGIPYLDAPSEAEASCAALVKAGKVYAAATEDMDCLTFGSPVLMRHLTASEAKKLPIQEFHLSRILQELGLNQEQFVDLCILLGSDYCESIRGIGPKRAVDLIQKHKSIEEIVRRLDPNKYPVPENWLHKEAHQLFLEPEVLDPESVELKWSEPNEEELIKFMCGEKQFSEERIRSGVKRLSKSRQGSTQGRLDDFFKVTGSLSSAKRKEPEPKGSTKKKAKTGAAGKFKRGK
UniProt O15527: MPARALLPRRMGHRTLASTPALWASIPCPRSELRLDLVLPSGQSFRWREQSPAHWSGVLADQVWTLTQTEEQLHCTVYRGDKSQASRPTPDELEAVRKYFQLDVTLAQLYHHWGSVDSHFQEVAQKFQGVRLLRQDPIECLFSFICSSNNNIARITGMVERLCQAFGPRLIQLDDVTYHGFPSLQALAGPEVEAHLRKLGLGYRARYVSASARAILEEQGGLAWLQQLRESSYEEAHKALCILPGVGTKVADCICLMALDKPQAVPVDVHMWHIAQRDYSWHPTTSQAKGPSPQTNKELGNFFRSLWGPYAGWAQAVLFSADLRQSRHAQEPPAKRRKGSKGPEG
UniProt P27695: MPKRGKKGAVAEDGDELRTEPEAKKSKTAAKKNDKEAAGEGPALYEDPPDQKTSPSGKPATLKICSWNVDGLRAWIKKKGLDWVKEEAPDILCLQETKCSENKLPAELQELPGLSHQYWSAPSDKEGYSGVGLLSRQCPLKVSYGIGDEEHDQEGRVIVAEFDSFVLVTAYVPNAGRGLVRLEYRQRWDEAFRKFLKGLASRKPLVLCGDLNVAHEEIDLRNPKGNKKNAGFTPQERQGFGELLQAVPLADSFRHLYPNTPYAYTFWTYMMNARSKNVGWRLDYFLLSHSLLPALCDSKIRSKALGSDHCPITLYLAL
UniProt P18858: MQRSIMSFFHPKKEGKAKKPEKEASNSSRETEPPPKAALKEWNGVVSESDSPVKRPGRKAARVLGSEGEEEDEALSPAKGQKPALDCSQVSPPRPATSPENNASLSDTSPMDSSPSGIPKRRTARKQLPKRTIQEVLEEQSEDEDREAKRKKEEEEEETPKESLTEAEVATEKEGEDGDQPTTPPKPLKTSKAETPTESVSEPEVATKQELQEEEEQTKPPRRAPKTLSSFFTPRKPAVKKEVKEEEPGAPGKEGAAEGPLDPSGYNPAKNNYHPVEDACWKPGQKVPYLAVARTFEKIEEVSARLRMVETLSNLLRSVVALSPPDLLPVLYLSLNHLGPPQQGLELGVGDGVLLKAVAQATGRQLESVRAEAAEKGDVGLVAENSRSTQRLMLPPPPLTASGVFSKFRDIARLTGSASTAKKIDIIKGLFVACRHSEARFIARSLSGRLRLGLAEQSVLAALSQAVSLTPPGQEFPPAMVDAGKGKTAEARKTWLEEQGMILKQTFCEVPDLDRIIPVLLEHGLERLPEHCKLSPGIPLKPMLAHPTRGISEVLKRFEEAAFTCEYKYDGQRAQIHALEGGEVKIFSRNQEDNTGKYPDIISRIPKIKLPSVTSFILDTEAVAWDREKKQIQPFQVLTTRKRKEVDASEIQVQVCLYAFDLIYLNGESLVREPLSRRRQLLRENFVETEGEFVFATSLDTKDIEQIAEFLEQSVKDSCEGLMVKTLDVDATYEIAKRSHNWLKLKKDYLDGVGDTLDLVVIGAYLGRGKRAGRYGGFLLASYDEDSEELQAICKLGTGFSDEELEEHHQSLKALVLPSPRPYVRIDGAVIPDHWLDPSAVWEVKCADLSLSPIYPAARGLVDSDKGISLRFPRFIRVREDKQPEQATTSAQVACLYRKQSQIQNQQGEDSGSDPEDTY
UniProt Q2NKJ3: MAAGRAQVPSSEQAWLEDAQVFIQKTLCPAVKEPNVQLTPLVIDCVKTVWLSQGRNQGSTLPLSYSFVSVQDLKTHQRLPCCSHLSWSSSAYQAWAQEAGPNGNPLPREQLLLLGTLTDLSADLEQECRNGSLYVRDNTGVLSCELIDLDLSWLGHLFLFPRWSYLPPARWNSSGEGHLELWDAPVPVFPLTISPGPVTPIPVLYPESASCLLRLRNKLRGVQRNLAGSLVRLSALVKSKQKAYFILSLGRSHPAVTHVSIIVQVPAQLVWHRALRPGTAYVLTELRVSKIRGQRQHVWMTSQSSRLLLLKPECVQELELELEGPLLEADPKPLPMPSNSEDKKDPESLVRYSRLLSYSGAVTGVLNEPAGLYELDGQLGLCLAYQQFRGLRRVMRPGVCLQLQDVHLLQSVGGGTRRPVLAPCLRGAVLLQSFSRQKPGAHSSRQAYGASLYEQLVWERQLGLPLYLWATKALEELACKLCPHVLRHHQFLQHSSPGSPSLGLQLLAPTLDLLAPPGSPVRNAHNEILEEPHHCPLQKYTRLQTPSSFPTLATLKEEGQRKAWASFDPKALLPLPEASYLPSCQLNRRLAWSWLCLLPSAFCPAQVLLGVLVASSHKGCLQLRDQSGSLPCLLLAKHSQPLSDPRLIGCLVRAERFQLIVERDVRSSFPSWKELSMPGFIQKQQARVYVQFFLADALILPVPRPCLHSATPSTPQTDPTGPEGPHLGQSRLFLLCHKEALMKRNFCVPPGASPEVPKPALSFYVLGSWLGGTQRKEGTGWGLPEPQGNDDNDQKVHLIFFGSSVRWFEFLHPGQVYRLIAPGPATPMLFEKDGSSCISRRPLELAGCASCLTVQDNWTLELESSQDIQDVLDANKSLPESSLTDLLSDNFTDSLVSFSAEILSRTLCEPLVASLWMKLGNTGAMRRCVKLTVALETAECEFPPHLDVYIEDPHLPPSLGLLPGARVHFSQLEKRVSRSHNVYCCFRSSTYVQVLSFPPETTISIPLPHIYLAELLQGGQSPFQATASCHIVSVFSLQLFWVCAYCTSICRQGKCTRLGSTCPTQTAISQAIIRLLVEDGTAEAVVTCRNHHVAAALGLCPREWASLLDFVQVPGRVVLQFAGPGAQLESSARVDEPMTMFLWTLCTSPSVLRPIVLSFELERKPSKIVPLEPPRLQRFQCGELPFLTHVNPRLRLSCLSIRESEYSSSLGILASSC
UniProt Q9H668: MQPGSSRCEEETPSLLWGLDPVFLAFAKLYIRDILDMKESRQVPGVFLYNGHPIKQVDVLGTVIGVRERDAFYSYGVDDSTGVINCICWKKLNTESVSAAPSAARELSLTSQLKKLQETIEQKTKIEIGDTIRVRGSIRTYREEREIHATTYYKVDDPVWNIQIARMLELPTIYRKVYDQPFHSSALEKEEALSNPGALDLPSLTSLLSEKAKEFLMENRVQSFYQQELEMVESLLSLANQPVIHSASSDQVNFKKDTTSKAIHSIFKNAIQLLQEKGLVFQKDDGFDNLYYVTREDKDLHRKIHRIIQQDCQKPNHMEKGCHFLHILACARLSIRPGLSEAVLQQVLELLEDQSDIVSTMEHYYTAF
UniProt Q86WV5: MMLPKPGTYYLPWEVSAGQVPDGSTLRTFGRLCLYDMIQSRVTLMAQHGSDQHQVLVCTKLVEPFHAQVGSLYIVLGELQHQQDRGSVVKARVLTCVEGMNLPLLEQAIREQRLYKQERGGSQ

No constants are given. Whether binding was seen depends on the method and setting. For some of these results: Binding seen in cells or lysates may run through a third protein. Some binding calls cover weakened binding; strength is not graded here.

Consider Myc-STN1 (from UniProt Q9H668 1-368), for which the binding result in assay [1], in assay [2] and in assay [3] was “binds” throughout.
Take FLAG-CTC1 (from UniProt Q2NKJ3 1-1217): the binding result was “binds” in assay [1], “binds weakly” in assay [2], “binds” in assay [3] and “binds weakly” in assay [4].
For the substance “Recombinant human OGG1 (6X-His tagged) (from UniProt O15527 1-345) (enzyme)”, the binding result in assay [5] is listed as “binds”.
For FLAG-TEN1 (from UniProt Q86WV5 1-123), the binding result in assay [1] is listed as “no binding”; in assay [2], “no binding”; in assay [3], “no binding”; in assay [4], “binds”.
For “Recombinant human LIG1 (6X-His tagged) (from UniProt P18858 1-919) (enzyme)”, the binding result in assay [5] was “binds”.

Source of the values: article PMC11864811.
